# Measurements taken from PubChem BioAssay AID488969 (Vanderbilt High Throughput Screening Facility, 2010).
# The full ranking holds about 110,000 compounds; the median of “z-score” is about -0.1, and the highest 2% start at about 2. This is one part of the list. Activity calls are given as the source filed them.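 How the source made its calls: active means z-score in the third read window above 3 or below -3; inactive means the rest.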
# Target: Metabotropic glutamate receptor 8 (Rattus norvegicus) (UniProt P70579)
# Experiment: rat mGluR8 modulators via GIRK flux, primary screen, cell-based, thallium flux, HTS (AID 488969)
# Details: HEK293 rat mGluR8, GIRK (G protein-gated inwardly rectifying potassium channel) thallium flux, FluoZin2; at 10 µM; stronger effect = higher value; submaximal glutamate (EC20) added with thallium
# UniProt P70579, sequence (P70579 whole entry, looked up): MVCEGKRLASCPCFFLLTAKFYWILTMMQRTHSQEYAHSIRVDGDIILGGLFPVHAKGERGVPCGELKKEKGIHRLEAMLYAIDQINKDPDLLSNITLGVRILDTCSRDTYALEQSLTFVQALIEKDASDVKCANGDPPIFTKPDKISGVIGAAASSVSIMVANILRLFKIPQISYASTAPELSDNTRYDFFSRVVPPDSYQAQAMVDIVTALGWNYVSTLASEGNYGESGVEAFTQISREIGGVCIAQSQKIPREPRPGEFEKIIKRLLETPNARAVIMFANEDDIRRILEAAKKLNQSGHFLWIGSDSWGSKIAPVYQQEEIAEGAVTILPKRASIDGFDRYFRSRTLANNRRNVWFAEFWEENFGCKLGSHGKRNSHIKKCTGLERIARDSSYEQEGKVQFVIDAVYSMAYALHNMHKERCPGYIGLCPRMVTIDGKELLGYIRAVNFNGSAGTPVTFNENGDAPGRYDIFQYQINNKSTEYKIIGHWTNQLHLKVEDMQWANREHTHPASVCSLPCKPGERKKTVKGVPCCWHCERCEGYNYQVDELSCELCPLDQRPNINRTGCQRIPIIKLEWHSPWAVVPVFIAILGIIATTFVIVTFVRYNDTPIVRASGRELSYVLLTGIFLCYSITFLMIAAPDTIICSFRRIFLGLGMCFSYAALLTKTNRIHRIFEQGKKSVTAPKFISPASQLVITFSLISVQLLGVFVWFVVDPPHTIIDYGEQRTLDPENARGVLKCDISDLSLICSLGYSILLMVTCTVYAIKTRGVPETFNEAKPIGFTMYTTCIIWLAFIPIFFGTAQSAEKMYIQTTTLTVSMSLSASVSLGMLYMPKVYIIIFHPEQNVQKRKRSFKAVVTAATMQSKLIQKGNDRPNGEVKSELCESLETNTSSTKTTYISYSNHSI
row,SMILES,z-score
1,Cc1c(NC(=O)c2cnn3c2NC(c2ccco2)CC3C(F)(F)F)c(=O)n(-c2ccccc2)n1C (stereo not given),-0.265
2,Cc1ccc2c(C(=O)CN3CCC4(CC3)OCCO4)c(C)[nH]c2c1,-0.0354
3,COc1cc(/C=N/Nc2snc(SC)c2C#N)cc(OC)c1OC,-0.317
4,O=C(C1CCCN(S(=O)(=O)Cc2ccccc2)C1)N1CCc2ccccc21 (stereo not given),-0.0888
5,COc1cc2c(=O)nc3n(c2cc1OC)C(c1ccccc1)N=C(N)N3 (stereo not given),-0.235
6,CCOc1ccc2nc3ccc4[nH]onc4c3c2c1,-0.046
7,COc1ccc(-c2cn3c4c(sc3n2)CCCC4)cc1,1.67
8,O=C1CCCC2=C1C(c1ccccn1)Nc1ccc(C(=O)c3ccccc3)cc1N2 (stereo not given),-0.181
9,N#Cc1cccc(NC(=O)CSc2ccc3c4c(cccc24)C(=O)c2ccccc2-3)c1,-0.0107
10,CCCCCNC(=O)CC1Nc2c3ccccc3nc(=S)n2C1=O (stereo not given),-0.0711
11,Cc1cc(C)n(-c2ccc(C(=O)OCC(=O)Nc3ccc(Cl)c(S(=O)(=O)N(C)C)c3)cc2)n1,active: 15.5
12,Cc1cc(OCC(=O)c2ccc(F)cc2)ccc1N1C(=O)CCC1=O,-0.524
13,COc1cc(C2NC(=O)NC(C)=C2C(=O)OCC2CCCO2)ccc1O (stereo not given),0.215
14,CSCCC(NC(=O)C12CC3CC(CC(C3)C1)C2)C(=O)OCC(=O)c1ccccc1 (stereo not given),-0.248
15,O=C(N/N=C/c1ccc[nH]1)c1cccc([N+](=O)[O-])c1,-0.104
16,Cc1cc2ccccc2n2c(SCC(=O)Nc3ccc(S(=O)(=O)N4CCC(C)CC4)cc3)nnc12,-2.15
17,NNC(=O)c1nn(-c2ccc(Cl)cc2)ccc1=O,0.102
18,CC(C(=O)Nc1ccc(S(=O)(=O)N2CCCC2)cc1)N1CCN(C(=O)c2ccco2)CC1 (stereo not given),-0.141
19,CCOC(=O)CNC(=O)CSc1nnnn1-c1cc(C)ccc1C,-0.31
20,Cc1cc(C)nc(N2CCCC(C(=O)NCc3cccc(C(F)(F)F)c3)C2)n1 (stereo not given),0.115
21,COc1ccc(C(=O)NNC(=O)c2ccccc2[N+](=O)[O-])cc1Br,-0.113
22,CC(=O)Nc1ccc(S(=O)(=O)N2CCN(C(=O)c3cccnc3)CC2)cc1,0.0439
23,COc1ccc(C(=O)CSc2nc(SC)ns2)cc1OC,-0.163
24,COc1ccc(N(C)S(=O)(=O)c2cccc(C(=O)NCC3CCCO3)c2)cc1 (stereo not given),0.564
25,COc1ccc(C(=O)NCC(C)(C)SCc2c(C)cc(C)cc2C)cc1,0.119
26,Cn1cc(C(=O)N/N=C/C(Br)=C\c2ccccc2)ccc1=O,-0.0291
27,COc1cccc(C(=O)/C=C/Nc2cc(C)ccc2O)c1,0.572
28,Cc1ccc(OCC(=O)NCCO)cc1C,0.0429
29,Oc1ccccc1C(=S)N1CCCCCC1,0.672
30,Cc1ccc(O)c(C(=O)c2cnc3onc(-c4ccc(F)cc4)c3c2)c1,-0.451
